Data on 66 sequences can be found in publication PMC5892938.

The other results are listed elsewhere or left out. The source does not settle which construct or isoform was used.

The target in this assay is GST-SBP-ILF3 (Homo sapiens) (UniProt Q12906). The experiment in a line: targeted RNA Bind-n-Seq. As to conditions: RBNS binding buffer: 25 mM Tris pH 7.5, 150 mM KCl, 3 mM MgCl2, 0.1% Tween, 0.5 mg/mL BSA, 1 mM DTT; 27 nM protein, 750 pM RNA pool; temperature not stated; high values mean tight binding; sequences stand for … in GGGUAAAAGCGAGGUGAA…CGGGACAAGUAUUAUGGG
In the case of “UUUUUUUUUUGAGACGGUUCCCGUCUCCUG [tttttgagapaired]”, the binding signal (log2 fold change) came out at 0.716.
For the sequence “UUUUUUUUUUGAGAGUGAUCCAUUCUCCAG [tttttgagapaired]”, the binding signal (log2 fold change) was -0.023.
The same measure for “UUUUUUUUUUGAGAGGGCUACCCUUUCCAG [tttttgagapaired]”: 0.499; for “UUUUUUUUUUGAGAGGGCCGCCCUCUCCGG [tttttgagapaired]”: 1.14; for “UUUUUUUUUUGAGAGGGAAACCCUCUUCUA [tttttgagapaired]”: -0.191.
Then “GGUGGUGGUGUUGGCCUCUAACACCGCCGC [gtspaired]”, with -0.717.
For the sequence “UUUUUUUUUUGAGACGGUUCCCGUCUCCUA [tttttgagapaired]”, the binding signal (log2 fold change) amounted to 0.795.
“GUUGUGUGUGUUGGCUCCUAACACACACGA [gtspaired]”: the binding signal (log2 fold change) was -0.0721.
Then “GUGUGUGGUGUUGGACCCUAACACCAUACG [gtspaired]”, with -0.438.
“UUUUUUUUUUGAGACGGGAGCCGUUUCCUG [tttttgagapaired]”: the binding signal (log2 fold change) came out at 0.662.
The same measure for “UUUUUUUUUUGAGACUGGCACAGUCUCCGG [tttttgagapaired]”: 0.404.
Take “UUUUUUUUUUGAGACCGGGGCGGUCUCCUG [tttttgagapaired]”: the binding signal (log2 fold change) is 0.478.
For “GGUGUGUGUGUUGGCCUCUAACACACAUAC [gtspaired]”, the binding signal (log2 fold change) is -0.521.
The same measure for “GGUUGGUGUGUUGGAAUCUAACACAUCGAC [gtspaired]”: -0.606.
Turning to “UUUUUUUUUUGAGACGGGGGCCGUCUUCUA [tttttgagapaired]”, the binding signal (log2 fold change) was found to be 0.806.
Then “GGUGGUUGUGUUGGAGCCUAACACAACUAC [gtspaired]”, with -0.362; and “UUUUUUUUUUGAGAUGGGUUCCAUCUCCUA [tttttgagapaired]”, with 0.121.
“UUUUUUUUUUGAGAGGGGGGCCCUUUCCAG [tttttgagapaired]”: the binding signal (log2 fold change) worked out at 0.85.
For “UUUUUUUUUUGAGAGGGCAUCCCUCUCCGG [tttttgagapaired]”, the binding signal (log2 fold change) is 0.628.
In the case of “UUUUUUUUUUGAGACGGCGACCGUUUCCGG [tttttgagapaired]”, the binding signal (log2 fold change) was 0.724.
The same measure for “GUGUGGUGUGUUGGAUUCUAACACAUCACG [gtspaired]”: -0.855; for “UUUUUUUUUUGAGAGGGGUGCCCUCUCCUG [tttttgagapaired]”: 0.765.
In the case of “GUGUGUGGUGUUGGCUUCUAACACCAUACA [gtspaired]”, the binding signal (log2 fold change) is -0.117.
Take “GUGUGUUGUGUUGGAAUCUAACACAGCACA [gtspaired]”: the binding signal (log2 fold change) was -0.356.
Then “UUUUUUUUUUGAGACUGCAUCAGUUUCCAG [tttttgagapaired]”, with 0.0115; and “UUUUUUUUUUGAGAGCGGAACGCUCUUCUG [tttttgagapaired]”, with 0.151.
Then “UUUUUUUUUUGAGACUGACACAGUUUCCUA [tttttgagapaired]”, with 0.144; and “UUUUUUUUUUGAGACGGAUACCGUUUCCUG [tttttgagapaired]”, with 0.547.
On to “GUGUUGUGUGUUGGAGCCUAACACACAGCG [gtspaired]”, for which the binding signal (log2 fold change) is -0.531.
Then “UUUUUUUUUUGAGAUCGGAUCGAUCUCCAG [tttttgagapaired]”, with 0.17; and “UUUUUUUUUUGAGACUGUUUCAGUCUUCUA [tttttgagapaired]”, with -0.114; and “GUGGUGUGUGUUGGAAUCUAACACAUACCG [gtspaired]”, with -0.58.
“GGUUGUUGUGUUGGAGUCUAACACAACGAC [gtspaired]”: the binding signal (log2 fold change) is -0.442.
The same measure for “UUUUUUUUUUGAGACUGCGACAGUUUCCUA [tttttgagapaired]”: 0.55; for “GUGGUGUGUGUUGGUGCCUAACACACAUCA [gtspaired]”: -0.0369; for “GUGUGUGGUGUUGGUCUCUAACACCACACG [gtspaired]”: -0.485.
Then “GUGUGUUGUGUUGGUUCCUAACACAGCGCA [gtspaired]”, with -0.799.
On to “UUUUUUUUUUGAGAGCGUAUCGCUCUCCGG [tttttgagapaired]”, for which the binding signal (log2 fold change) was 0.348.
“GGUGGUUGUGUUGGUCUCUAACACAGCCGC [gtspaired]”: the binding signal (log2 fold change) was -0.608.
On to “UUUUUUUUUUGAGAACGCAACGUUCUCCAG [tttttgagapaired]”, for which the binding signal (log2 fold change) was found to be 0.0927.
On to “GGUGUGUGUGUUGGUAUCUAACACACGCGC [gtspaired]”, for which the binding signal (log2 fold change) was -0.53.
Consider “UUUUUUUUUUGAGAUGGGGUCCAUCUUCUA [tttttgagapaired]”, for which the binding signal (log2 fold change) is 0.365.
Turning to “UUUUUUUUUUGAGAGGGGCCCCCUCUCCUA [tttttgagapaired]”, the binding signal (log2 fold change) turned out to be 1.19.
For “UUUUUUUUUUGAGAUCGAGACGGUCUCCAG [tttttgagapaired]”, the binding signal (log2 fold change) was 0.303.
Turning to “UUUUUUUUUUGAGACUGAGACAGUUUUCUA [tttttgagapaired]”, the binding signal (log2 fold change) stood at 0.0917.
For “UUUUUUUUUUGAGACUGCAACAGUCUCCUA [tttttgagapaired]”, the binding signal (log2 fold change) came to 0.491.
As to “UUUUUUUUUUGAGACGGACGCCGUCUCCUG [tttttgagapaired]”, the binding signal (log2 fold change) was found to be 0.53.
Then “UUUUUUUUUUGAGAGCGGGCCGUUCUCCUA [tttttgagapaired]”, with 0.401.
Take “UUUUUUUUUUGAGACUGACACAGUUUCCUG [tttttgagapaired]”: the binding signal (log2 fold change) came to 0.364.
Regarding “GUGGUGUGUGUUGGUGUCUAACACACGCCG [gtspaired]”, the binding signal (log2 fold change) is -0.0868.
Then “GUUGUGUGUGUUGGCUUCUAACACACACAG [gtspaired]”, with -0.613; and “UUUUUUUUUUGAGAUCGAAGCGAUCUCCUG [tttttgagapaired]”, with 0.563; and “GUGGUUGGUGUUGGUUCCUAACACCGACCG [gtspaired]”, with -0.362.
Consider “GUGUGUUGUGUUGGUGUCUAACACAGCGCG [gtspaired]”, for which the binding signal (log2 fold change) is -0.647.
The same measure for “GGUGUUGGUGUUGGCCCCUAACACCGACGC [gtspaired]”: -0.228; for “UUUUUUUUUUGAGAUCGUCACGAUCUCCUG [tttttgagapaired]”: 0.374; for “GUGUGGUGUGUUGGCCUCUAACACACUACG [gtspaired]”: -0.587.
The same measure for “UUUUUUUUUUGAGACCGCUCCGGUCUCCUG [tttttgagapaired]”: 0.766; for “UUCUCUCCUCCUCCUGGGGAGGGGGGGAGA [ctspaired]”: -0.422.
Take “GUGGUUGGUGUUGGCAUCUAACACCAAUCA [gtspaired]”: the binding signal (log2 fold change) was -0.488.
As for “UUUUUUUUUUGAGAUCGGAUCGAUCUUCUG [tttttgagapaired]”, the binding signal (log2 fold change) was -0.0139.
As to “UUUUUUUUUUGAGACCGAAUCGGUUUCCUG [tttttgagapaired]”, the binding signal (log2 fold change) came to 0.775.
Then “UUUUUUUUUUGAGAUGGCAACCAUCUUCUA [tttttgagapaired]”, with 0.155; and “UUCCUCUCUCCUCCAGGGGAGGGGGGAGGA [ctspaired]”, with -0.0721; and “UUUUUUUUUUGAGAGGGAGUCCCUCUCCUA [tttttgagapaired]”, with 0.579.
With “UUUUUUUUUUGAGACGGUGACCGUCUCCGG [tttttgagapaired]”, the binding signal (log2 fold change) came out at 0.489.
